Hit rate of the full screen: of about 46,000 compounds, about 60 (0.1%) were called active. Inconclusive results (about 3%) are left out. The call rests on the fitted dose curve; in most records, active means well fitted inhibition curve with a large enough effect; inconclusive means small, poorly fitted or top-dose-only effect; inactive means no such curve, though single readings can be large or run the other way. The list shows a part of the results.
Potency means the concentration at half of the fitted maximal effect.

This assay is described as follows: Primary qHTS assay for Inhibitors of ovarian cancer metastasis using an organotypic tumor microenvironment (TME) model. Further: nearly all actives have a fitted effect of over 65% in size.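 On Potency: count of GFP cancer cells still attached after washing and fixation.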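 On activity change, negative = inhibition: plate controls were DMSO wells for no effect and tomatine positive control wells for full effect.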 Particulars: SKOV3ip1-GFP adhesion/invasion on 3D omental model, fluorescence; series mostly up to 45.8 µM; activity change, negative = inhibition: at the top concentration. The procedure, abridged:
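Adhesion/invasion was scored as fixed GFP-labeled SKOV3ip1 cell counts (488/509 nm), normalized to DMSO and tomatine controls. Cancer cells in serum-free medium, with four compound doses (0.36-46 umol/L), sat 2 hr at RT then 16 hr at 37 C on a 48 hr fibroblast/mesothelial/ECM culture.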
On the technique in general: In qHTS, concentration-response curves come from the screen itself.
In the case of `Cc1c(Cl)cccc1NC(=O)NCc1c(-n2cccc2)sc2c1CCCC2`, the “activity change, negative = inhibition” value was inactive: 2.87%.
On the same count and under the same terms, for `Cc1ccc(N(Cc2cccs2)C(=O)Nc2cccc(Cl)c2)cc1` the value was inactive: -5.31%; for `CCOC(=O)c1ccccc1NC(=O)c1cc2c(s1)-c1c(C)cccc1OC2`, inactive: -0.159%.
For the compound `CCOc1ccccc1NC(=O)Cn1cnc2c1c(=O)n(C)c(=O)n2C`, the compound was called inactive.
For `COc1ccc(N2CC3=C(C2=O)C(c2ccc(O)c(OC)c2)NC(=O)N3C)cc1` (stereo not given), the “activity change, negative = inhibition” value was inactive: -3.06%.
For the compound `CCOc1ccccc1NC(=O)CSc1nc2c(oc3ccccc32)c(=O)n1C(C)C`, the call was inactive.
As for `CC(C)OCCCNc1sc(S(=O)(=O)c2ccccc2)nc1S(=O)(=O)c1ccc(Cl)cc1`, the “activity change, negative = inhibition” value was inactive: 5.52%.
On the same count and under the same terms, as for `Cc1c(C(=O)Nc2ccc(F)cc2F)oc2ccc3c(c12)C(=O)CC(C)(C)O3`, the figure is inactive: -16.1%; as for `Cn1ncc2c(NCc3ccc(Cl)cc3)ncnc21`, inactive: -2.53%; as for `COc1ccc(CCNC(=O)c2cnc3ccc(C)cn3c2=O)cc1OC`, inactive: 2.69%.
The same measure, in the same setting: for `COCCCNC(=O)c1cc(-c2ccc(OC)cc2)nc2n[nH]c(-c3ccc(Cl)cc3)c12` the value was inactive: 25.4%; for `Cc1ccsc1CN(Cc1ccco1)C(=O)c1ccc(Cl)cc1`, inactive: -2.67%; for `CCOc1ccc(NC(=O)CSc2ncn[nH]2)cc1`, inactive: 2.11%.
Consider `CCOC(=O)c1cc(-c2ccc(OC)cc2)n(CCC(=O)NCc2ccccc2OC)c1C`, for which the “activity change, negative = inhibition” value is inactive: 1.67%.
Still for that read-out and setting: as for `CON(C)C(=O)N1N=C(c2cc(F)ccc2F)S[C@]1(CCCN)c1ccccc1`, the figure is inactive: 3.18%.
Consider `Cc1ccc(C)c(N2CCN(S(=O)(=O)c3ccc(-c4cc(C(F)(F)F)on4)s3)CC2)c1`, for which the compound was called inactive.
The same measure, in the same setting: as for `O=C(NCCc1ccc(Cl)cc1)C(=O)NCC(c1ccc2c(c1)OCO2)N1CCOCC1` (stereo not given), the entry is “inactive”.
On to `O=C(Nc1nc2c(F)cc(F)cc2s1)c1ccc2c(c1)OCCO2`, for which the “activity change, negative = inhibition” value is inactive: -4.99%.
For the compound `COc1cc(OC)c(N(C)C(=O)c2cn(C)c(=O)c3cc(OC)c(OC)cc23)cc1Cl`, the “activity change, negative = inhibition” value is inactive: 3.22%.
Turning to `Cc1c(Cl)cccc1NC(=O)C1CCCN(C(=O)c2cnn(-c3ccccc3)c2-n2cccc2)C1` (stereo not given), the outcome was inactive.
For `O=C(Nc1nc2ccc(F)cc2s1)c1nc(SCc2ccccc2F)ncc1Cl`, the “activity change, negative = inhibition” value was inactive: 6.27%.
Turning to `O=C(CN1C(=O)COc2ccc(S(=O)(=O)N3CCOCC3)cc21)Nc1ccc(F)c(Cl)c1`, the result was inactive.
As to `Cn1c(=O)c2cc(C(=O)N3CCN(c4cccc(C(F)(F)F)c4)CC3)sc2c2ccccc21`, the “activity change, negative = inhibition” value was inactive: -4.44%.
Still for that read-out and setting: as for `Cc1cc(S(=O)(=O)Nc2cc3c(cc2Cl)n(C)c(=O)c(=O)n3C)ccc1F`, the figure is inactive: -6.08%.
Take `Cc1cc(C)c(S(=O)(=O)NCCc2sc(-c3cccnc3)nc2C)c(C)c1`: the outcome was inactive.
Take `O=C(Nc1cc(C(F)(F)F)ccc1Cl)c1cc(-c2cccs2)nc2ccccc12`: the “activity change, negative = inhibition” value was inactive: 2.02%.
Consider `CCOc1ccc(NC(=O)c2ccc3c(c2)nnn3C2CCCC2)cc1`, for which the compound was classed as inactive.
With `CCN(CC)S(=O)(=O)c1ccc(NC(=O)c2ccc3c(=O)n4c(nc3c2)CCCCC4)cc1`, the “activity change, negative = inhibition” value is inactive: -6.12%.
On the same count and under the same terms, for `Cc1ccccc1CNC(=O)CCc1cn(Cc2ccccc2C)c2ccccc12` the value was inactive: -4.85%; for `CC(C)(C)c1ccc(C(=O)N2CCC(c3noc(-c4ccc(S(=O)(=O)N5CCCC5)cc4)n3)CC2)cc1`, inactive: -7.84%; for `CCOc1ccccc1N(C)C(=O)c1cc(S(=O)(=O)NCCc2ccc(Cl)cc2)ccc1F`, inactive: 5.97%.
With `CC(C)(C)C(=O)Nc1nnc2n1CCS2`, the call was inactive.
For `Cc1c(C(=O)Nc2cccc(C(F)(F)F)c2)oc2ccc(S(=O)(=O)N3CCC4(CC3)OCCO4)cc12`, the “activity change, negative = inhibition” value is inactive: -4.71%.
Still for that read-out and setting: for `Cc1ccc2c(c1)N(C(=O)CCC(=O)Nc1ccc(F)cc1F)CC(C)O2` (stereo not given) the value was inactive: 0.022%.
`Cc1nn(S(=O)(=O)c2ccc(F)cc2)c(C)c1S(=O)(=O)N1CCCCC1`: the “activity change, negative = inhibition” value was inactive: -18.2%.
On the same count and under the same terms, as for `CCOC(=O)c1c(C)[nH]c(C)c1S(=O)(=O)N1CCC(C(=O)NCc2cccc(C)c2)CC1`, the figure is inactive: -4.28%; as for `O=C(Nc1ccc(-c2nc3ccccc3s2)c(O)c1)c1ccc(Br)cc1`, inactive: 1.01%; as for `Cc1ccc(NC(=O)C2CCN(S(=O)(=O)c3cccc4nonc34)CC2)c(Cl)c1`, inactive: 1.23%.
Still for that read-out and setting: as for `CCc1ccccc1NC(=O)CSc1nc(C)c(C(=O)Nc2ccccc2)c(-c2ccc(Cl)cc2)c1C#N`, the figure is inactive: -24.5%; as for `Cc1cccc(NC(=O)CSc2nnc3[nH]c(=O)cc(C)n23)c1C`, inactive: -5.31%; as for `CCOC(=O)C1=C(CS(=O)(=O)c2ccc(C(C)(C)C)cc2)NC(=O)NC1c1cccc(OC)c1` (stereo not given), inactive: 4.24%.
For the compound `Cc1cc(=O)c2c(O)c3c(O)cc(=O)c4c3c3c(cc(O)c1c23)C(C)(C)C=4O`, the “activity change, negative = inhibition” value was inactive: -2.91%.
Still for that read-out and setting: for `Cc1cc(S(=O)(=O)Nc2cc3c(cc2NCc2ccccc2)n(C)c(=O)n3C)ccc1F` the value was inactive: -2.49%; for `O=C(CSCc1ccc(F)cc1)N1CCc2c([nH]c3ccccc23)C1c1ccc(F)cc1` (stereo not given), inactive: -0.907%; for `O=C(CCn1c(=O)c2cccn2c2cccnc21)Nc1ccccc1Br`, inactive: 6.28%.
Regarding `COc1ccc(-c2cc3c(=O)n(CC(=O)Nc4ccc(Br)c(C)c4)ccn3n2)cc1OC`, the call was inactive.
Consider `COc1ccc(N2CCN(C(=O)c3cnc(SC)nc3C)CC2)cc1`, for which the outcome was inactive.
For the compound `Cc1ccc(S(=O)(=O)c2nnn3c2nc(N2CCCC2)c2sccc23)cc1C`, the “activity change, negative = inhibition” value is inactive: -9.64%.
Turning to `Cc1ccccc1CN1C(=O)c2ccccc2S(=O)c2ccc(C(=O)NC3CCC(C)CC3)cc21` (stereo not given), the “activity change, negative = inhibition” value is inactive: -10.2%.
The same measure, in the same setting: for `CC(=O)N1c2c(cc(Br)cc2S(=O)(=O)N2CCN(c3cc(C)ccc3C)CC2)CC1C` (stereo not given) the value was inactive: 1.54%; for `OC[C@H](Cc1ccccc1)Nc1nc(Oc2ccc3c(c2)CCC3)nc2c1ncn2Cc1ccc(-c2ccccc2)cc1`, inactive: 21.5%; for `O=C(c1ccc2c(c1)N(Cc1cccc(F)c1)C(=O)c1ccccc1S2)N1CCOCC1`, inactive: -12.3%.
With `COc1ccc(/C=C/C(=O)Nc2ccc3nc4c(c(Nc5ccccc5OC)c3c2)CCCC4)cc1`, the Potency is active: 1260 nM.
In the case of `Cc1ccc(S(=O)(=O)c2nnn3c2nc(N2CCN(c4ccccc4F)CC2)c2cc(Cl)ccc23)cc1C`, the “activity change, negative = inhibition” value is inactive: 3.96%.
As to `COc1ccc(OC)c(NC(=O)C2=C(C)C(=O)OC23CCCCCC3)c1`, the “activity change, negative = inhibition” value was inactive: 11.7%.
Turning to `CCc1ccc(NC(=O)c2sc3nc(C)c(Cl)c(C)c3c2NC(=O)c2ccccc2OC)cc1`, the outcome was inactive.
On the same count and under the same terms, for `CC1=C(C#N)C(NC(=O)c2ccccc2Cl)(C(F)(F)F)C(=O)N1` (stereo not given) the value was “inactive”; for `CCN(C(=O)CSc1nc2ncccc2[nH]1)c1ccc(C(C)C)cc1`, “inactive”.
`COc1cccc(-c2ncnn2-c2sc3c(c2C#N)CCCCC3)c1OC`: the “activity change, negative = inhibition” value was inactive: -2.77%.
`O=C(COc1ccc(Cl)cc1)Nc1nnc(S(=O)(=O)N2CCc3ccccc32)s1`: the result was inactive.
On the same count and under the same terms, as for `CCOCCc1nn2c(=O)cc(COC(=O)CNC(=O)c3cccc(C)c3)nc2s1`, the entry is “inactive”.
Regarding `Cc1ccc2c(=O)cc(C(=O)Nc3nc4ccc(Cl)cc4s3)oc2c1C`, the “activity change, negative = inhibition” value was inactive: -2.23%.
As for `CCN(CC)CCCNC(=O)c1cnc(SC)nc1-c1ccccc1`, the “activity change, negative = inhibition” value is inactive: 3.26%.
On the same count and under the same terms, as for `CCN(CC)CCCNC(=O)c1cn(C)c2ccc(S(=O)(=O)N(C)C3CCCCC3)cc2c1=O`, the figure is inactive: -7.28%; as for `Cc1ccc(CN(C(=O)COc2ccc([N+](=O)[O-])cc2)c2ccccn2)cc1`, inactive: 1.59%; as for `COc1ccccc1NC(=O)c1c(NCc2ccc(OC)c(OC)c2OC)sc2c1CCC2`, inactive: 0.572%.
With `CCOC(=O)c1c(C)[nH]c(C)c1S(=O)(=O)N(C)CC(=O)N1CCN(c2ccccc2)CC1`, the outcome was inactive.
Consider `CC(C)c1ccc(NC(=O)Cn2cc(S(=O)(=O)N3CCN(c4ccccc4F)CC3)c3ccccc3c2=O)cc1`, for which the “activity change, negative = inhibition” value is inactive: 1.23%.
With `CCOc1ccc(CCNC(=O)c2cn(C)c3ccc(S(=O)(=O)N4CCCCCC4)cc3c2=O)cc1OCC`, the result was inactive.
For `Cc1nn(CC(=O)N2CCC(C)CC2)c(=O)c2cc3sccc3n12`, the “activity change, negative = inhibition” value was inactive: -1.67%.
`COc1ccc(CNc2nc3c(-c4cccc(C)c4)nnn3c3ccccc23)cc1`: the call was inactive.
On to `CCOc1ccc(NC(=O)c2cnc(N3CCCC3)nc2C)cc1`, for which the “activity change, negative = inhibition” value was inactive: 3.02%.
As for `CCCCN(C)CCNC(=O)c1c2c(nc3ccccc13)C(=O)N(C1CCCCC1)C2`, the result was inactive.
The same measure, in the same setting: for `CCCNC(=O)CCc1nnc2ccc(N3CCN(c4cccc(OC)c4)CC3)nn12` the value was “inactive”.
As to `Cc1c(C(=O)NCC(c2ccc(Cl)cc2)N2CCOCC2)oc2ccccc12` (stereo not given), the “activity change, negative = inhibition” value is inactive: 1.06%.
For `CCOc1ccc(N2CC(c3nc4ccccc4n3CCCOc3ccccc3)CC2=O)cc1` (stereo not given), the “activity change, negative = inhibition” value was inactive: -2.02%.
Still for that read-out and setting: for `CCCCOC(=O)c1ccc(NC(=O)c2cc3c(=O)n4cccc(C)c4nc3s2)cc1` the value was inactive: 0.821%; for `OC(Cn1cncn1)(Cn1cncn1)c1ccc(F)cc1F`, inactive: 7.78%; for `Cc1cc(Cl)ccc1OCc1nc(-c2ccc(-n3cccc3)cc2)no1`, inactive: 10.6%.
As for `Cc1ccc(-n2c(=O)c3cccnc3n2CC(=O)Nc2ccc(Br)cc2)cc1C`, the “activity change, negative = inhibition” value is inactive: -11%.
The same measure, in the same setting: as for `Cc1ccc(NC(=O)CCn2c(=O)c3cccn3c3ccccc32)cc1C`, the figure is inactive: -13.5%.
Consider `CCC(=O)N1CCc2cc(Br)cc(S(=O)(=O)CCC(=O)NCCc3cccc(C)c3)c21`, for which the result was inactive.
As to `Cc1ccc(CN2CCC(CNC(=O)Nc3ccc(Cl)cc3)C2)cc1` (stereo not given), the compound was called inactive.
`CC(C)(C)OC(=O)N1CCC(c2c(C(=O)NCCN3CCc4ccccc4C3)cnn2-c2ccc(F)cc2F)CC1`: the “activity change, negative = inhibition” value is inactive: -0.993%.
As for `Cc1cc(C)cc(NC(=O)C(Cc2ccccc2)NS(=O)(=O)c2ccc3c(c2)c(=O)n(C)c(=O)n3C)c1` (stereo not given), the call was inactive.
In the case of `CCOC(=O)N1CCc2c(sc(NCc3sccc3C)c2C(=O)Nc2ccc(OC)cc2OC)C1`, the “activity change, negative = inhibition” value is inactive: 0.159%.
On to `Cn1ncc2c(N3CCN(c4cccc(Cl)c4)CC3)ncnc21`, for which the “activity change, negative = inhibition” value is inactive: -2.58%.
For `CC(Oc1ccc(F)cc1)C(=O)N1CCC(c2nc3ccccc3s2)CC1` (stereo not given), the result was inactive.
Regarding `COc1ccc(C)cc1NC(=O)CCS(=O)(=O)c1cc2c3c(c1)CCN3C(=O)CC2`, the “activity change, negative = inhibition” value was inactive: 5.74%.
On the same count and under the same terms, for `COc1ccccc1N1CCN(C(=O)c2nc(SC)ncc2Cl)CC1` the value was inactive: -8.78%.
With `O=C(Cn1c(SCCOc2ccccc2)nc2ccccc21)N1CCOCC1`, the “activity change, negative = inhibition” value is inactive: 2.87%.
Same read-out and setting: for `COc1ccc(N2CC(NC(=O)/C=C\c3ccccc3)CC2=O)cc1` (stereo not given) the value was inactive: 6.14%; for `C[C@@H](NCCCc1cccc(C(F)(F)F)c1)c1cccc2ccccc12`, inactive: -13.3%; for `CC(=O)Nc1cccc(-n2c(=O)n(C3CC3)c(=O)c3c(Nc4ccc(I)cc4F)n(C)c(=O)c(C)c32)c1`, inactive: 11.1%.
Turning to `CC(C)(C)C(=O)Cn1c(=O)n(-c2ccc(Cl)cc2)c(=O)c2c3c(sc21)CCCC3`, the compound was classed as inactive.

The values are drawn from PubChem BioAssay AID1963576 (National Center for Advancing Translational Sciences (NCATS), 2024).
